Results on five molecules are retold here after CN114716553A (BEIJING KENUO XINCHENG TECH CO LTD, dated 2022).

Assay [1] has as its target T1, 人LILRB4 (on LILRB4-positive cells) (human, UniProt Q8NHJ6 22-448).
T1 construct: whole, on cells; also called 人LILRB4阳性细胞THP-1细胞; 人LILRB4阳性细胞RPMI-8226细胞
In words: flow cytometry on THP-1 cells. A general note: A flow cytometer gives signals particle by particle.

In assay [2] the target is T1, 人LILRB4 (on LILRB4-positive cells). In words: cell-based or functional assay.
Assay [3] has as its target T2, 人LILRB4重组蛋白(购于义翘，Cat.16742-H08H) (human, UniProt Q8NHJ6 22-259).
T2 construct: Bought protein; also called human LILRB4 recombinant protein
Description: BLI (Octet QKe), antibody captured on AHC probe, antigen 100 nM, 1:1 Langmuir fit. In general terms: In BLI a coated tip is dipped into the sample, and binding shifts an interference pattern.

For orientation: EC50 means the concentration at which the effect is half-maximal. A low value points to a more potent agent. One may read the Kd as the equilibrium constant for the complex coming apart. Higher therefore signals a looser complex. Usually koff stands for a measure of how fast the partners let go of each other. Broadly, the kon is a measure of how fast the partners come together.

B1: chC6 (Fc fusion)
chain: QVQLQESGGGLVQPGGSLRLSCAASGLAFSRYYMSWVRQAPGKGLEWVSGIRSDGLSTSYADSVKGRFTISRDNAKNTLFLQMNNLKSEDTALYYCATGVGDSGDYRGQGTQVTVSSAS[letters of human IgG1 Fc with changes omitted]
notes: Camel VHH fused to human Fc, expressed in HEK293; also called chC6嵌合抗体
Turning to B1, the EC50 in assay [1] was 0.22 nM.

B2: chD5 (Fc fusion)
chain: QVQLQESGGGSVQAGGSLRLSCATSGDTYSTLCMGWFRQAPGKEREGVAAIYRGGDSTVYADSVKGRFTISQDNAKNTVYLQMNGLKPEDTAIYYCAASSLGRCAADIRTGPPFWAVGFRYWGQGTQVTVSSAS[letters of human IgG1 Fc with changes omitted]
notes: Camel VHH fused to human Fc, expressed in HEK293; also called chD5嵌合抗体
Turning to B2, the “EC50 of T cell activation (LILRB4 Effector Reporter cells with APOE/TCR Activator/CHO cells, luciferase)” value in assay [2] was found to be 0.043 nM. In assay [1], this molecule returned an EC50 of 0.31 nM.

B3: chC7 (Fc fusion)
chain: QVQLQESGGGSVQAGGSLRLSCAASEYTYSRHCMAWFRQAPGKEREGVATIYTGGGITRYADSVKGRFTISQDNAKNTVYLQMNSLKPEDTAMYYCAADIASRACVTDPFPLKHAQFSSWGQGTQVTVSSAS[letters of human IgG1 Fc with changes omitted]
notes: Camel VHH fused to human Fc, expressed in HEK293; also called chC7嵌合抗体
Molecule B3 came in with a concentration giving a half-maximal response (EC50) in assay [1] of 0.39 nM. That is a sub-nanomolar value.

B4: chD2 (Fc fusion)
chain: QVQLQESGGGSVQAGGSLRLSCTASGYTASSDYMGWFRQAPGKKREGVACINTNGGETYHANSVSGRFTISRDNAKNTVYLQMNSLKPDDTAMYYCAVGRTNPDSYGGSRCLLAPEYTYWGQGTQVTVSSAS[letters of human IgG1 Fc with changes omitted]
notes: Camel VHH fused to human Fc, expressed in HEK293, Protein A purified; also called chD2嵌合抗体; chD2重组蛋白
Regarding B4, in assay [1], it took 0.27 nM to reach a half-maximal effect (EC50). For the same molecule, in assay [3], the equilibrium dissociation constant (Kd) is 0.312 nM, the koff came out at 9.3e-05 s⁻¹ and the association rate constant (kon) is 298000 M⁻¹ s⁻¹.

B5: chH9 (Fc fusion)
chain: QVQLQESGGGSVQAGGSLRLSCAVSEYVYSRCTMAWYRQAPGKERELVSAFDSGETTWYADSVKGRFTISQDNAKNTVYLQMNSLKPEDTAMYYCNTVGVKSVKSGGGSWCFSPDYWGQGTQVTVSSAS[letters of human IgG1 Fc with changes omitted]
notes: Camel VHH fused to human Fc, expressed in HEK293; also called chH9嵌合抗体
As to B5, the “EC50 of T cell activation (LILRB4 Effector Reporter cells with APOE/TCR Activator/CHO cells, luciferase)” value in assay [2] amounted to 0.064 nM. In assay [1], the EC50 was determined as 0.44 nM.
